Data taken from PubChem BioAssay AID488969 (Vanderbilt High Throughput Screening Facility, 2010).
Over roughly 110,000 compounds, “z-score” has its median near -0.1; the highest 2% begin near 2. Some of the results follow.

target: Metabotropic glutamate receptor 8 (Rattus norvegicus) (UniProt P70579); assay: mGluR8 Gi/Go-coupled signaling modulation – cell-based, rat, thallium flux, HTS, primary screen (AID 488969); conditions: HEK293 rat mGluR8, GIRK (G protein-gated inwardly rectifying potassium channel) thallium flux, FluoZin2; at 10 µM; stronger effect = higher value; submaximal glutamate (EC20) added with thallium
UniProt P70579, sequence (P70579 whole entry, looked up): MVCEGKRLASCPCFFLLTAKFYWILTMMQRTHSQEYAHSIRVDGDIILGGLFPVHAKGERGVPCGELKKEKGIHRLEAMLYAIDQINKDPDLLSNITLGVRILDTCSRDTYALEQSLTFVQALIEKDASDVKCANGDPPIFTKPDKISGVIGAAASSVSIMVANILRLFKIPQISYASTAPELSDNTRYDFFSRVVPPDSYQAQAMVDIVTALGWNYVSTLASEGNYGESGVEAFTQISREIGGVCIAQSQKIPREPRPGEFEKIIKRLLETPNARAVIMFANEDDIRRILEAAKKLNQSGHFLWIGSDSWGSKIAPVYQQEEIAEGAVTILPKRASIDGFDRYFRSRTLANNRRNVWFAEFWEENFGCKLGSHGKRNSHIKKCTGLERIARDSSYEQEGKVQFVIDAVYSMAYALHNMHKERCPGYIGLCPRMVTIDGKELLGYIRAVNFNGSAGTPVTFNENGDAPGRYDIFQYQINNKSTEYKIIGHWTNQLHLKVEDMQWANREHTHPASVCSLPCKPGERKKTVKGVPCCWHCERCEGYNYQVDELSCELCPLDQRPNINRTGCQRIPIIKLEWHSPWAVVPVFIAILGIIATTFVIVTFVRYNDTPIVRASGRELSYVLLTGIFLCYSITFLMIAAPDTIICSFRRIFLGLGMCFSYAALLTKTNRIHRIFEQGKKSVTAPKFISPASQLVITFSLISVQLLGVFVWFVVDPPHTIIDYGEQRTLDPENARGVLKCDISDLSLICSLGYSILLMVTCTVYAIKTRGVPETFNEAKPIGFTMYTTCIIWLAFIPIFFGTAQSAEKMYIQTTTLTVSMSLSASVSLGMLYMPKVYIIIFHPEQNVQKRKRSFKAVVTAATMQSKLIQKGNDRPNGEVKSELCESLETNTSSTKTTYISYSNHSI

Structure (SMILES)	z-score
CC(C)(C)Cc1nc(-c2ccc(Cl)cc2)no1	0.892
O=C(COC(=O)[C@H](Cc1c[nH]c2ccccc12)NC(=O)c1ccc(Cl)cc1)Nc1ccc2c(c1)OCO2	0.558
CCOC(=O)c1ccc(NC(=O)CNC(=O)C23CC4CC(CC(C4)C2)C3)cc1	0.204
COc1ccc(OC)c(/C=C/C(=O)N2C(=O)c3cccc(N)c3C2=O)c1	0.359
CN(C)c1ccc(NC(=O)Nc2cccc(Cl)c2)cc1	-0.185
CCN(CC)S(=O)(=O)c1ccc(NC(=O)c2cc(-c3ccccc3)nc3ccccc23)cc1	-0.15
C=C(C)C1CC=C(C)/C(=N\NC(=S)Nc2ccc(C)cc2)C1 (stereo unspecified)	0.799
Cc1cc(NC(=O)CSc2c3c(nc4ccccc24)CCC3)no1	-0.266
CC(O/N=C\c1ccccc1O)C(=O)Nc1ccccc1C(=O)N1CCOCC1 (stereo unspecified)	-0.13
Cc1cc(Cl)ccc1NC(=S)N1CCOCC1	-0.185
CC(C)(C)c1cc(NC(=O)CSc2nnc(N)s2)n(-c2ccccc2)n1	-0.234
O=C(O)CNC(=O)c1ccccc1F	0.194
Cc1cc(C)c(O)c(-c2cc(C(=O)NCc3ccccc3)[nH]n2)c1	-0.0726
Cc1cccc(Nc2nc(NCC3CCCO3)nc(N)c2[N+](=O)[O-])c1 (stereo unspecified)	-0.309
CCOc1ccc(N(CC(=O)Nc2ccc3c(c2)OCCO3)S(=O)(=O)c2c(C)noc2C)cc1	0.0859
O=C(COC(=O)c1ccc(-c2ccc([N+](=O)[O-])cc2)o1)NC(=O)NC1CCCCC1	-0.324
O=C(NCc1ccco1)C(c1ccccc1)N(Cc1ccccc1)C(=O)Cn1nnc2ccccc21 (stereo unspecified)	0.0768
Cn1c(CN2CCCC2)nc2cc(NS(=O)(=O)c3ccc(Cl)cc3)ccc21	-0.015
COC(=O)Cc1ccc(NC(=S)NCc2ccc(Cl)cc2)cc1	-0.427
Cc1ccccc1/C=C/c1nc2ccccc2c(=O)n1CCc1ccccc1	-0.318
Cc1ccc(C)c2[nH]c(=O)c(CCNC(=O)c3ccc(Br)o3)cc12	-0.0291
CC(C)c1nc2oc3c(NCC4CCCO4)ncnc3c2c2c1COC(C)(C)C2 (stereo unspecified)	-0.711
CC(=O)c1cccc(N=C2NC(=O)C(CO)(CO)S2)c1	-0.0146

Structure (SMILES)	z-score
COc1ccc(CCNC(=O)Cn2nc([N+](=O)[O-])c(Br)c2C)cc1OC	-0.251
COc1cccc(C(=O)Nc2ccc(NC(=O)C3CC3)cn2)c1	-0.97
Cc1c(CCOC(=O)CC23CC4CC(CC(C4)C2)C3)sc[n+]1CC(=O)c1ccc(Br)cc1	0.0917
CCOC(=O)c1ccccc1NC(=O)CSc1nc2ccccc2n1CC(=O)N1CCCC1	-0.472
CC(=O)c1cc(OC(=O)N2CCOCC2)ccc1OC(=O)N1CCOCC1	-0.376
COc1ccc(C2=NNC(=O)CC2)cc1	-0.018
CSc1nc2ccccc2c(=O)n1N	0.226
CN(C)C(CNC(=O)CCCOc1ccccc1)c1ccco1 (stereo unspecified)	0.0291
COC(Cn1c(C)c(C(C)=O)c(C(C)=O)c1C)OC	-0.0274
O=S(=O)(c1ccc(Cl)cc1)n1ccc(-c2cccc(OCc3c(F)cccc3Cl)c2)n1	-0.155
O=C(c1cccs1)N1CCC2(O)CCCCC2C1c1ccc(F)cc1 (stereo unspecified)	0.0895
CCc1nnc(NC(=O)c2ccc(S(=O)(=O)N3CCCc4ccccc43)cc2)o1	0.372
CCCn1c(SC(C)C(=O)O)nc2ccccc21 (stereo unspecified)	-0.579
N#CSCC(=O)c1cccc2ccccc12	1.08
CN1CCN(C(=O)C2CC(=O)N(c3ccc(F)c(Cl)c3)C2)CC1 (stereo unspecified)	-0.219
O=C(Nc1ccc(Cl)cc1)C1C2CCC3C(CCC21)C3(Cl)Cl (stereo unspecified)	-0.136
COc1ccc(/C=C2\COc3ccccc3C2=O)cc1OC	-0.0225
COc1cc(OC)cc(C(=O)NCC(=O)OCc2csc(-c3ccccc3)n2)c1	-0.33
COC(=O)\C(C(C)=O)=C(/C=C/C=C/N(C)C)N(C)C	-0.286
CCc1cc2c(SCC(=O)O)ncnc2s1	-0.293
CCC(=O)Nc1ccc(C(=O)N/N=C/c2ccccc2[N+](=O)[O-])cc1	-0.12
OC(CN1CCOCC1)CN1CCOCC1	0.593
Cn1c(=O)c2c(nc(Oc3ccccc3)n2C)n(C)c1=O	-0.175

Structure (SMILES)	z-score
CCCCn1c(O)c(/C=C2\C=NN=C2c2ccccc2)sc1=S	0.0136
CCOc1ccc2nc(NC(=O)Cc3cccs3)sc2c1	-0.235
COc1ccc(Cl)cc1C(=O)Nc1ccc(N(C)C(C)=O)cc1	0.083
CSCCC(NS(=O)(=O)c1ccc2ccccc2c1)C(=O)O (stereo unspecified)	1.51
Cc1ccc(SCC(=O)Nc2ccc(S(=O)(=O)Nc3nccs3)cc2)cc1	0.625
CC(C)Cc1nc(Cl)c(C#N)c2c1CCCC2	-0.271
CCOC(=O)C1=C(C)NC2=C(C(=O)CCC2)C1c1cccs1 (stereo unspecified)	-0.55
Cc1cccc(C(=O)N2CCC(c3nc(-c4ccc(S(=O)(=O)N5CCOCC5)cc4)no3)CC2)c1	-0.323
O=C(Nc1ccc2c(c1)nc1n2CCN(C2CCCCC2)C1)NC1CCCCC1	-0.198
COc1ccc(CNC(=O)CCn2cccc2)cc1	0.242
O=C(Nc1ccccc1N1CCCC1)c1cccnc1	-0.262
O=C(Nc1c(-c2ccccc2)nc2ccccn12)c1cccs1	-0.239
C/C(=N\NC(=O)c1ccc(O)cc1)c1ccc2c(c1)Nc1ccccc1S2	0.00996
COc1ccc(/C=C2\SC(=O)N=C2N)cc1OC	0.0136
O=C(CCCOc1ccc(Cl)cc1Cl)N1CCc2ccccc2C1	-0.129
O=C(CCCc1ccccc1)N1CCc2ccccc21	-0.217
O=C(Nc1ccc(-c2nc3ccccc3[nH]2)cc1)C1CCCO1 (stereo unspecified)	-0.398
CC(C)NC(=O)c1ccc(C2SCC(=O)N2Cc2ccccc2)cc1 (stereo unspecified)	-0.906
Cc1ccc([N+](=O)[O-])cc1-c1ccc(/C=C(\C#N)c2[nH]nc(N)c2C#N)o1	-0.0051
CC(C)CCn1c(CN(C)Cc2ccccc2)nc2c1c(=O)n(C)c(=O)n2C	0.0888
CCOc1cc(C2NC(=O)N(C)C(C)=C2C(=O)OC)cc(Br)c1O (stereo unspecified)	0.0727
Cc1cc2nc(SCCN3CCOCC3)[nH]c2cc1C	-0.235
CCOc1cc2c(cc1OC)C(NC(=O)C(F)(F)F)CC2=O (stereo unspecified)	0.226

Structure (SMILES)	z-score
O=C(COC(=O)Cc1c(Cl)cccc1Cl)NCCC1=CCCCC1	-0.34
c1ccc2[nH]c(SCc3ccc(-c4nnco4)cc3)nc2c1	-0.713
Cc1cc(=O)[nH]c(COc2ccccc2)n1	0.172
c1ccc(-c2oc3ncnc(NCCN4CCOCC4)c3c2-c2ccccc2)cc1	-0.115
COc1ccc2c(-c3ccccc3)cc3nnnn3c2c1	-0.74
CCCCc1cc(=O)oc2cc(C)cc(OCc3nn[nH]n3)c12	-0.257
Cc1ccc(Oc2ncccc2/C=N/OCc2ccc(Cl)cc2Cl)cc1	0.00198
Cc1cc(OCCn2ccnc2)cc(C(C)C)c1	-0.207
Cc1ccc(Cl)cc1OCC(=O)NCCOC(=O)Nc1sc(=S)n(C)c1C	-0.181
CCOC(=O)c1c(NC(C)=O)sc2c(O)c(Br)ccc12	-1.3
CCN(CC)S(=O)(=O)c1cc(C(=O)Nc2ccccc2C(=O)O)ccc1OC	-1.44
CCn1cc(C(=O)O)c(=O)c2cc(S(=O)(=O)N(C)C)ccc21	-0.105
CCC1CCc2c(c3ccccc3[nH]c2=O)O1 (stereo unspecified)	0.227
CN(CC(=O)NCc1ccc2c(c1)OCO2)S(=O)(=O)c1ccc(Br)s1	-0.0602
Cc1n[nH]c(=O)nc1N/N=C/c1ccc(O)c([N+](=O)[O-])c1	-0.137
Cc1ccc(-n2c3nc(=O)[nH]c(=O)c-3cc3cc([N+](=O)[O-])ccc32)cc1C	-1.35
COc1ccc(N2CCN(CC(=O)Nc3ccc(SC(F)F)cc3)CC2)cc1	-0.669
COCCn1c(C)cc(C(=O)CSc2nnc3scc(-c4ccc(Cl)cc4)n23)c1C	-0.12
COc1ccccc1CNC(=O)C1CCN(S(C)(=O)=O)CC1	0.0756
O=C(CC1Oc2ccc(Cl)cc2NC1=O)NC1CCCCCC1 (stereo unspecified)	-0.428
Cc1ccc(-c2nnc(OCCN3CCOCC3)c3ccccc23)cc1	-0.664
Cc1nnc(OCC(=O)NCCC2=CCCCC2)c2ccccc12	0.283
O=C(OC(c1ccccc1)c1nccc2ccccc12)c1cc([N+](=O)[O-])cc([N+](=O)[O-])c1 (stereo unspecified)	-0.259

Structure (SMILES)	z-score
O/N=C/c1ccc(OCc2ccccc2)c(Br)c1	0.388
CC(C)Oc1ccc(/C(O)=C2/C(=O)C(=O)N(CCN3CCOCC3)C2c2ccccc2)cc1 (stereo unspecified)	0.227
O=C(COC(=O)CC(c1ccccc1)c1ccccc1)NCc1ccc(Cl)cc1	-0.0225
Cc1cc2cc(C)c3nnc(SCC(=O)Nc4ccc(S(=O)(=O)N5CCCCC5)cc4)n3c2cc1C	0.128
O=C(CSc1nnc(Cc2cc(=O)[nH]c(=O)[nH]2)n1-c1ccc(Cl)cc1)NC1CCCC1	-0.0944
CCCCn1nnnc1SCC(=O)NCc1ccco1	-0.109
O=C(/C=C/c1ccc2c(c1)OCO2)Nc1nc(-c2ccc(F)cc2)cs1	-0.18
CCO/C=C1/C(=O)N(CC)c2ccccc21	0.859
CCOc1ccc(C2C(C#N)=C(N)Oc3cc(C)n(Cc4ccco4)c(=O)c32)cc1OC (stereo unspecified)	-0.0285
CS(=O)(=O)N(CC(=O)NC1CCCCCC1)Cc1ccccc1	0.041
Clc1ccc(CON/C=N/c2ncnc3sccc23)cc1	-0.0162
O=c1c2ccccc2nc(/C=C/c2ccc(O)cc2)n1CCc1ccccc1	-0.0886
COc1c(S(=O)(=O)NCCN2CCOCC2)ccc(Cl)c1Cl	0.459
O=[N+]([O-])c1ccc(CSc2nnc(SCc3ccccc3)s2)cc1	0.0918
Cc1cccc(/C=N/Nc2cc(N3CCOCC3)nc(N3CCOCC3)n2)c1	-0.44
CCOc1ccc(C2C(C(=O)Nc3ccc(F)cc3)=C(C)Nc3nc(CCCO)nn32)cc1 (stereo unspecified)	0.0171
O=C(Nc1ccccc1)c1ccccc1OCc1cccc([N+](=O)[O-])c1	-0.111
CC(C)(C)NC(=S)NC(=O)C12CC3CCC(CC(C3)C1)C2	-0.239
O=C(c1cc2nc(-c3ccco3)cc(C(F)(F)F)n2n1)N1CCN(Cc2ccccc2)CC1	-0.1
